The list shows a part of the results. These are noisy estimates, calculated here from bound and input reads.

The assay deals with T1, Pho4 (S. cerevisiae) (UniProt P07270).
T1 sequence: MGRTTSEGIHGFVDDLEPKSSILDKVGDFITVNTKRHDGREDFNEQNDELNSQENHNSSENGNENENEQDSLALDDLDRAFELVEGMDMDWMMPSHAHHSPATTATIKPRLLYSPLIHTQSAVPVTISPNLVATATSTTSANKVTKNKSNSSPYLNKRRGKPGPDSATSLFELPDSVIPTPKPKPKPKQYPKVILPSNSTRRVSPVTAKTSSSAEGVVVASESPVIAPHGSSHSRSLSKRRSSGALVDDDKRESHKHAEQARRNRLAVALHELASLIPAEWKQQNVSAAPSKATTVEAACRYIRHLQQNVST
Nature of the assay: relative binding free energy (BET-seq); higher = weaker binding. To be noted: reference: library average.
As to CTAGGCACGTGGGGTT, the “relative binding free energy” value is -0.27 kcal/mol.

Regarding TTCTACACGTGGGTAG, the “relative binding free energy” value is -0.08 kcal/mol.

Take CAGTGCACGTGAAGTT: the “relative binding free energy” value came out at 0.28 kcal/mol.

As for GCTTGCACGTGTGTGG, the “relative binding free energy” value is 0.02 kcal/mol.

Regarding AGCGTCACGTGGAGGG, the “relative binding free energy” value amounted to 0.06 kcal/mol.

For ATTATCACGTGTGCGG, the “relative binding free energy” value is 0.03 kcal/mol.

For the sequence GTGTTCACGTGACAGG, the “relative binding free energy” value is 0.37 kcal/mol.

On to AAATACACGTGGGATG, for which the “relative binding free energy” value is -0.07 kcal/mol.

Regarding TCACGCACGTGTTGGG, the “relative binding free energy” value was -0.05 kcal/mol.

As for AAAGTCACGTGAGGAG, the “relative binding free energy” value came out at 0.25 kcal/mol.

As to CTTGTCACGTGGGCGC, the “relative binding free energy” value is 0.06 kcal/mol.

Consider TTCTACACGTGTTGGC, for which the “relative binding free energy” value worked out at 0.26 kcal/mol.

Turning to GGTGGCACGTGAGACG, the “relative binding free energy” value was 0.18 kcal/mol.

For the sequence TGTGGCACGTGCATGA, the “relative binding free energy” value is -0.3 kcal/mol.

GCCGGCACGTGAGGTT: the “relative binding free energy” value stood at 0.27 kcal/mol.

GGCTGCACGTGCTTGG: the “relative binding free energy” value is -0.01 kcal/mol.

AGTTTCACGTGCAAGT: the “relative binding free energy” value was 0.31 kcal/mol.

For the sequence AGACTCACGTGGTTTT, the “relative binding free energy” value stood at 0.09 kcal/mol.

For TTTGGCACGTGTTGTG, the “relative binding free energy” value is -0.02 kcal/mol.

On to TGTACCACGTGTTATT, for which the “relative binding free energy” value was -0.17 kcal/mol.

In the case of GTTGCCACGTGGGAGA, the “relative binding free energy” value was -0.11 kcal/mol.

Turning to ATTGTCACGTGCGGCG, the “relative binding free energy” value was -0.1 kcal/mol.

Turning to TGATGCACGTGAAAGT, the “relative binding free energy” value worked out at 0.21 kcal/mol.

In the case of TTTTTCACGTGATTAG, the “relative binding free energy” value was found to be 0.32 kcal/mol.

With GTGTTCACGTGGGGCA, the “relative binding free energy” value came out at 0.1 kcal/mol.

For CAGGGCACGTGGATCG, the “relative binding free energy” value came to 0.04 kcal/mol.

Turning to TTGGTCACGTGGATTC, the “relative binding free energy” value worked out at 0.16 kcal/mol.

As for TGGGGCACGTGTGTAA, the “relative binding free energy” value was -0.09 kcal/mol.

GGGCACACGTGGGTCG: the “relative binding free energy” value was -0.07 kcal/mol.

Take GTGAACACGTGATGGG: the “relative binding free energy” value came to 0.15 kcal/mol.

Take TGGGACACGTGTATGA: the “relative binding free energy” value was -0.08 kcal/mol.

As to CTGGGCACGTGGGTGC, the “relative binding free energy” value is -0.29 kcal/mol.

TTCTTCACGTGAGTTG: the “relative binding free energy” value was 0.42 kcal/mol.

Consider CTATCCACGTGGGGGG, for which the “relative binding free energy” value was -0.25 kcal/mol.

Consider TTACGCACGTGATGTG, for which the “relative binding free energy” value was -0.09 kcal/mol.

In the case of ACGGTCACGTGAAGTT, the “relative binding free energy” value amounted to 0.28 kcal/mol.

Turning to TTTGTCACGTGTTTTA, the “relative binding free energy” value stood at 0.08 kcal/mol.

For the sequence GGTTACACGTGATTTT, the “relative binding free energy” value was 0.36 kcal/mol.

Regarding CGTGTCACGTGTTAAA, the “relative binding free energy” value was determined as 0.11 kcal/mol.

Regarding CAGTTCACGTGTTGGT, the “relative binding free energy” value is 0.35 kcal/mol.

Regarding TAGGGCACGTGCAGTG, the “relative binding free energy” value was -0.17 kcal/mol.

Regarding TTAGGCACGTGATTTC, the “relative binding free energy” value is -0.05 kcal/mol.

Turning to TTTCGCACGTGAGTAA, the “relative binding free energy” value was determined as 0.05 kcal/mol.

For the sequence GCAGGCACGTGTTGGC, the “relative binding free energy” value was -0.04 kcal/mol.

As for ATAGTCACGTGGGGTT, the “relative binding free energy” value is -0.01 kcal/mol.

In the case of ATTCTCACGTGTGATG, the “relative binding free energy” value was 0.27 kcal/mol.

For GTTGCCACGTGGCGGG, the “relative binding free energy” value was -0.07 kcal/mol.

On to ACTGACACGTGGGTTG, for which the “relative binding free energy” value is -0.07 kcal/mol.

AGGGTCACGTGGATAA: the “relative binding free energy” value turned out to be 0.1 kcal/mol.

Turning to TACGGCACGTGTGGCG, the “relative binding free energy” value is -0.06 kcal/mol.

As for TCGAGCACGTGTGTCG, the “relative binding free energy” value came out at 0.03 kcal/mol.

Turning to TTGATCACGTGATAAT, the “relative binding free energy” value amounted to 0.26 kcal/mol.

Take AGATGCACGTGGGGTA: the “relative binding free energy” value was -0.04 kcal/mol.

Regarding CTGGCCACGTGTGTAG, the “relative binding free energy” value was 0.06 kcal/mol.

For the sequence TTTGGCACGTGGGATT, the “relative binding free energy” value was -0.07 kcal/mol.

Turning to ATTAGCACGTGATGCT, the “relative binding free energy” value was 0.09 kcal/mol.

In the case of TCTCGCACGTGGTTTT, the “relative binding free energy” value is -0.06 kcal/mol.

On to GATATCACGTGTTTCT, for which the “relative binding free energy” value came to 0.26 kcal/mol.

Turning to TGGATCACGTGATTGG, the “relative binding free energy” value stood at 0.3 kcal/mol.

On to GTGAACACGTGAAGGT, for which the “relative binding free energy” value came out at 0.26 kcal/mol.

Regarding TAATGCACGTGTTTTA, the “relative binding free energy” value is 0.02 kcal/mol.

Consider TGGTACACGTGGCAAG, for which the “relative binding free energy” value is -0.01 kcal/mol.

Consider CGCGTCACGTGGTAGT, for which the “relative binding free energy” value turned out to be 0.04 kcal/mol.

In the case of TCTTTCACGTGGGCGG, the “relative binding free energy” value turned out to be 0.13 kcal/mol.

Turning to ATTCGCACGTGGGGGT, the “relative binding free energy” value is -0.1 kcal/mol.

Consider TGTGGCACGTGACATA, for which the “relative binding free energy” value is -0.1 kcal/mol.

As for TGTTGCACGTGCTTTC, the “relative binding free energy” value was -0.01 kcal/mol.

For the sequence TAGATCACGTGGCGGT, the “relative binding free energy” value amounted to 0.11 kcal/mol.

For AAGGTCACGTGTGGAA, the “relative binding free energy” value was determined as 0.15 kcal/mol.

Consider ATATTCACGTGGCTGT, for which the “relative binding free energy” value came out at 0.11 kcal/mol.

For TACTGCACGTGTAAGT, the “relative binding free energy” value was found to be 0.19 kcal/mol.

Consider AAGGGCACGTGTACGT, for which the “relative binding free energy” value is -0.05 kcal/mol.

On to CGTGTCACGTGTTAAG, for which the “relative binding free energy” value came out at 0.01 kcal/mol.

Consider CATAACACGTGGTGTG, for which the “relative binding free energy” value was -0.14 kcal/mol.

AAAGGCACGTGCGGGT: the “relative binding free energy” value is -0.28 kcal/mol.

As to GGTGTCACGTGGCTAG, the “relative binding free energy” value amounted to 0.1 kcal/mol.

As to TTGGGCACGTGTGGCC, the “relative binding free energy” value was 0.03 kcal/mol.

Regarding TGTGGCACGTGTCGGT, the “relative binding free energy” value is 0 kcal/mol.

Consider GGTTGCACGTGGGTGT, for which the “relative binding free energy” value was -0.04 kcal/mol.

Consider CCGTGCACGTGCGGGT, for which the “relative binding free energy” value was -0.02 kcal/mol.

For TTTTGCACGTGGTTGA, the “relative binding free energy” value was -0.06 kcal/mol.

In the case of AAAGGCACGTGGGTGG, the “relative binding free energy” value was -0.16 kcal/mol.

Turning to GGGAACACGTGATTTT, the “relative binding free energy” value was found to be 0.23 kcal/mol.

In the case of AGTGGCACGTGTTCTA, the “relative binding free energy” value is -0.11 kcal/mol.

On to TTATCCACGTGTGTTT, for which the “relative binding free energy” value is 0.03 kcal/mol.

As for GTAGGCACGTGTGCGT, the “relative binding free energy” value was -0.16 kcal/mol.

Turning to GTTTACACGTGTGATG, the “relative binding free energy” value was found to be 0.3 kcal/mol.

GAATACACGTGTATTT: the “relative binding free energy” value worked out at 0.32 kcal/mol.

On to AGGGTCACGTGGTAAC, for which the “relative binding free energy” value stood at 0.22 kcal/mol.

For ATTAACACGTGTTGAA, the “relative binding free energy” value is -0.05 kcal/mol.

As to TATTACACGTGGGTAT, the “relative binding free energy” value was -0.13 kcal/mol.

Regarding AATTACACGTGGACGG, the “relative binding free energy” value worked out at 0.29 kcal/mol.

ATTGGCACGTGCCTTG: the “relative binding free energy” value was -0.07 kcal/mol.

For GAATTCACGTGTGGCT, the “relative binding free energy” value turned out to be 0.31 kcal/mol.

As for GGGCGCACGTGCGGTT, the “relative binding free energy” value is -0.04 kcal/mol.

In the case of GAAGCCACGTGGGTGG, the “relative binding free energy” value was -0.09 kcal/mol.

On to ATTCTCACGTGTGCGG, for which the “relative binding free energy” value amounted to 0.17 kcal/mol.

For the sequence CAGGTCACGTGGCGAG, the “relative binding free energy” value came out at 0.16 kcal/mol.

Consider ATATACACGTGGTGAG, for which the “relative binding free energy” value is 0.07 kcal/mol.

On to AATGGCACGTGAGGCT, for which the “relative binding free energy” value worked out at 0.16 kcal/mol.

Regarding TGGGGCACGTGAACTT, the “relative binding free energy” value was 0.09 kcal/mol.

With TTGGCCACGTGGGGTC, the “relative binding free energy” value is -0.23 kcal/mol.

On to TTTGGCACGTGTAGCT, for which the “relative binding free energy” value amounted to 0 kcal/mol.

As for CTGCGCACGTGTTGGG, the “relative binding free energy” value is -0.23 kcal/mol.

As for TATGGCACGTGGGCAA, the “relative binding free energy” value is -0.19 kcal/mol.

On to TTTTACACGTGGGGAG, for which the “relative binding free energy” value was 0.09 kcal/mol.

Turning to GCCGTCACGTGTGGGG, the “relative binding free energy” value stood at 0.11 kcal/mol.

On to GAGTTCACGTGGGATA, for which the “relative binding free energy” value stood at 0.31 kcal/mol.

For CTATTCACGTGAGAAT, the “relative binding free energy” value is 0.52 kcal/mol.

For the sequence CTTGACACGTGGTGGT, the “relative binding free energy” value is -0.01 kcal/mol.

For the sequence TTGCACACGTGGTGTC, the “relative binding free energy” value was 0.03 kcal/mol.

For ATTCACACGTGTTTTG, the “relative binding free energy” value is -0.06 kcal/mol.

As for TTGAGCACGTGTAAAG, the “relative binding free energy” value turned out to be 0 kcal/mol.

For the sequence TAAGGCACGTGCTGTG, the “relative binding free energy” value was -0.07 kcal/mol.

For TGGCTCACGTGTGACT, the “relative binding free energy” value is 0.26 kcal/mol.

The record behind these values is the BET-seq Pho4 binding data (Le et al. 2018).
